“And” between values parts separate entries of the source, which are not always exact repeats. Equal entries are not always repeated. The campaign covered roughly 150,000 compounds. About 540 (0.36%) showed an effect of 50% or more. This is one part of the list.
Test system: Plasmodium falciparum
Test: Primary screen in NF54 nanoGlo assay, in single point, at 2uM, 72h; a lower Z score goes with more inhibition
Format: functional, Erythrocyte
Details: timepoint 72 hour

| SMILES | % Inhibition [%] | Z score | % Inhibition (2 µM) |
| --- | --- | --- | --- |
| CN(C)C[C@H]1CCN(Cc2[nH]c3ccccc3c2Cl)C1 | -13 | 2.42 |  |
| Cc1ccc2[nH]c(C3CN(S(=O)(=O)c4ccc5c(c4)OCCO5)C3)nc2c1 | -17 | 3.26 |  |
| Cc1ccc(NC(=O)C(F)(F)F)cc1Br | -1 | 0.08 |  |
| CCN1CCN(Cc2cc(C)cc(CN3C[C@H]4CC[C@@H](C3)[C@H]4O)c2C)CC1 | -24 | 2.29 |  |
| COc1ccccc1OCCN1C[C@@H](C(=O)Nc2ccc(F)c(F)c2F)CC1=O | 2 | -0.22 |  |
| COCCC1(CN[C@@H](C)c2ncc(Br)cc2Cl)CC1 | -4 | 0.41 |  |
| Fc1ccccc1C1(c2nc([C@H]3CCOC3)no2)CC1 | 4 | -0.53 |  |
| N#Cc1cn(-c2ccc(NC(=O)CC[C@H]3CCCOC3)cc2)nc1N | -15 | 2.41 |  |
| CCC(COC)NC(C)c1ccc(=O)[nH]n1 (centres undefined) | -12 | 2.34 |  |
| CCOC(=O)C1CCCCN1C(=O)CC1(c2ccccc2OC)CC(=O)N(C2CCCC2)C1=O (centres undefined) | -6 | 1.14 |  |
| CN(C)C(=O)c1cnc(N(C)C)nc1[C@H]1CCN(Cc2ccccc2)C1 | -4 | 0.52 |  |
| N#CCCN(Cc1ccccc1)C(=O)C1(c2ccccc2)CCCC1 | -8 | 1.1 |  |
| C[C@H]1CCN(c2cc(C(=O)N3CCC(C)(N4CCOCC4)CC3)ccn2)C1 | 0 | 0.06 |  |
| c1ccc(COc2ccc(CN3CC(c4nc(-c5ccsc5)no4)C3)cc2)cc1 | -23 | 2.65 |  |
| Cc1c(Cl)ccc(NC(=O)NC[C@@H](O)CO)c1Cl | -12 | 1.15 |  |
| O=C(Oc1ccc(Cl)cc1)c1ccc2snnc2c1 | -15 | 2.01 |  |
| Cc1nc(CC[C@H]2CCCN2C(=O)C2CCCCC2)no1 | -1 | 0.15 |  |
| c1ccc2c(c1)CCN(c1nccc(-c3ccsc3)n1)C2 | -16 | 2.4 |  |
| CCCN(CCO)CC(=O)N1CCC(C)CC1 | -4 | 0.62 |  |
| Cn1ncc2c1CCC[C@@H]2NCCc1ccccc1O | -5 | 0.59 |  |
| O=C(CCc1cccnc1)N1CCO[C@H](C(=O)N2CCCCCCC2)C1 | -16 | 3.14 |  |
| CCS(=O)(=O)N1CC(=O)N(c2cc(C)ccc2OC)[C@](C)(C(=O)NC2CCCCCC2)C1 | -13 | 1.65 |  |
| Cc1ccc(CN(CCO)C(=O)NCc2n[nH]c3c2CCC3)s1 | -20 | 2.12 |  |
| O=C([C@@H]1COCCN1)N1CCN(c2ccccc2F)CC1 | -6 | 0.76 |  |
| Cc1ccc(CC(OC(=O)C2CCCN(C(N)=O)C2)C2CC2)cc1 (centres undefined) | -5 | 0.49 |  |
| COCCN(C[C@@H]1CC=CCC1)C(=O)C1CCS(=O)(=O)CC1 | 3 | -0.43 |  |
| CC(C)n1nccc1[C@H]1OCC[C@@H]1C(=O)N1CCCC(S(C)(=O)=O)C1 (some centres undefined) | -8 | 1.27 |  |
| CC(C(=O)N[C@@H](C)C(=O)NCCc1c[nH]c2ccccc12)n1cnc2ccccc2c1=O (some centres undefined) | -5 | 0.65 |  |

| SMILES | % Inhibition [%] | Z score | % Inhibition (2 µM) |
| --- | --- | --- | --- |
| O=C(NCC1(c2ccccn2)CCC1)N1CCC2(CCC2)S(=O)(=O)CC1 | -8 | 1.51 |  |
| c1ccc(C/N=C2\CCc3ccccc3N2)cc1 |  |  | -12% and 2% |
| CS(=O)(=O)NC[C@@H](c1ccco1)N1CCCC1 | -7 | 1.3 |  |
| Cc1cccn2cc(CS(=O)(=O)[C@@H](C)C(=O)NC3CCCC3)nc12 | 3 | -0.41 |  |
| CC(=O)N1C(c2ccccc2)CC(O)C(c2ccccc2)C1c1ccccc1 (centres undefined) | -31 | 3.69 |  |
| Cc1ccc2c(=O)n(CC[C@H]3CCCCN3C)cnc2c1C | -7 | 1.32 |  |
| Cc1ccc(NC(=O)N2CCC(n3cnc4cccnc43)CC2)c(C)c1 | -6 | 0.85 |  |
| CCS(=O)(=O)Oc1ccccc1CN(CC1CC1)C(=O)NC(C)(C)C | 3 | -0.44 |  |
| Cc1cc(N2CCCC2=O)c(NC(=O)CCc2ccccc2)cc1NC(=O)CCc1ccccc1 | 4 | -0.5 |  |
| O=C(N[C@H]1COCC[C@@H]1O)c1ccc(CN2CCc3ccccc3C2)o1 | -13 | 1.27 |  |
| O=C(Nc1ccc(CCN2CCNCC2)cc1)c1ccccc1 | -11 | 1.53 |  |
| CCC(CC)C1CC(NC(=O)NCc2cscn2)CCO1 (centres undefined) | -10 | 1.18 |  |
| CCc1cc2c(N3C[C@H]4CN(C(=O)C5CCNC5=O)C[C@@]4(C)C3)ncnc2s1 (some centres undefined) | 1 | -0.17 |  |
| O=S(=O)(NC[C@H](O)c1ccccc1Cl)c1cncc(F)c1 | -8 | 1.14 |  |
| CCCCCOCC(=O)N1CCS(=O)(=O)C2CCCC21 (centres undefined) | -9 | 1.43 |  |
| C[C@@H](C(=O)NCc1nc(C2CCC(F)(F)CC2)no1)c1ccccc1 | -17 | 2.22 |  |
| CC(C)Cc1cc(NC2CC[C@@H](O)[C@@H](O)C2)ncn1 (some centres undefined) | -12 | 2.18 |  |
| COCCN(c1ccncc1)S(C)(=O)=O | 35 | -4.67 |  |
| O=C(c1ncc(F)cc1F)N1C[C@@H]2CC[C@H]1CN(C1Cc3ccccc3C1)C2 | 3 | -0.52 |  |
| CCc1onc(C)c1[C@@H]1CCCN1Cc1ccc(OC)c(Br)c1 | -5 | 0.73 |  |
| CC(C)c1ccc(NC[C@@H](C(C)C)N(C)C)nn1 | -3 | 0.59 |  |
| COc1ccc(C)nc1NS(=O)(=O)c1ccc2c(c1)CC(C)(C)O2 | -12 | 1.58 |  |
| COC(C)CS(=O)(=O)NC(C)CN1CCCCCC1 (centres undefined) | -5 | 0.67 |  |
| CC[C@H](NC(=O)Cc1cc(F)c(F)c(F)c1)C1CC(O)C1 (some centres undefined) | 12 | -1.67 |  |
| CC1CCC(OC2CCN(C(=O)Nc3cn[nH]c3)CC2)CC1 (centres undefined) | -25 | 2.31 |  |
| Nc1nnc(-c2ccc(Br)o2)o1 | 10 | -1.28 |  |
| CC(C)N(Cc1nc(C(=O)N2CCOCC2)co1)Cc1ccc(Cl)cc1Cl | -3 | 0.32 |  |
